Source: the supplement of paper PMC8728848
This is one part of the list.

Legend:
Experiment in all cases: glycan array binding signal (z-score within array); higher = stronger binding
Details in all cases: glycan notation: IUPAC condensed, linker removed
[1] = target: Fuc(a1-2)Gal(b1-4)GlcNAc(b1-3)Gal(b1-4)GlcNAc
How it was run: (§1)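 The Consortium for Functional Glycomics database supplied 3228 glycan arrays, of which those lacking an available protein sequence were dropped. The binding signal, a within-array Z-score, was averaged across arrays of the same protein sequence and across linkers. Negative scores can be read as non-binding.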

[2] = target: Fuc(a1-2)Gal(b1-4)GlcNAc(b1-3)Gal(b1-4)GlcNAc(b1-2)Man(a1-3)[Fuc(a1-2)Gal(b1-4)GlcNAc(b1-3)Gal(b1-4)GlcNAc(b1-2)Man(a1-6)]Man(b1-4)GlcNAc(b1-4)GlcNAc
How it was run: as §1

[3] = target: Fuc(a1-2)Gal(b1-4)GlcNAc(b1-3)Gal(b1-4)GlcNAc(b1-3)Gal(b1-4)GlcNAc
How it was run: as §1

[4] = target: Fuc(a1-2)Gal(b1-4)GlcNAc(b1-3)GalNAc
How it was run: as §1

[5] = target: Fuc(a1-2)Gal(b1-4)GlcNAc(b1-3)[Fuc(a1-2)Gal(b1-4)GlcNAc(b1-6)]GalNAc
How it was run: as §1

[6] = target: Fuc(a1-2)Gal(b1-4)GlcNAc(b1-3)[Fuc(a1-3)[Gal(b1-4)]GlcNAc(b1-6)]Gal(b1-4)Glc
How it was run: as §1

[7] = target: Fuc(a1-2)Gal(b1-4)GlcNAc(b1-6)GalNAc
How it was run: as §1

[8] = target: Fuc(a1-2)Gal(b1-4)GlcNAc6S
How it was run: as §1

[9] = target: Fuc(a1-2)Gal(b1-4)[Fuc(a1-3)]GalNAc(b1-3)Gal(b1-4)[Fuc(a1-3)]GlcNAc
How it was run: as §1

[10] = target: Fuc(a1-2)Gal(b1-4)[Fuc(a1-3)]GalNAc(b1-3)Gal(b1-4)[Fuc(a1-3)]GlcNAc(b1-3)Gal(b1-4)[Fuc(a1-3)]GalNAc
How it was run: as §1

[11] = target: Fuc(a1-2)Gal(b1-4)[Fuc(a1-3)]GlcNAc
How it was run: as §1

[12] = target: Fuc(a1-2)Gal(b1-4)[Fuc(a1-3)]GlcNAc(b1-2)Man(a1-3)[Fuc(a1-2)Gal(b1-4)[Fuc(a1-3)]GlcNAc(b1-2)Man(a1-6)]Man(b1-4)GlcNAc(b1-4)[Fuc(a1-6)]GlcNAc
How it was run: as §1

[13] = target: Fuc(a1-2)Gal(b1-4)[Fuc(a1-3)]GlcNAc(b1-2)[Fuc(a1-2)Gal(b1-4)[Fuc(a1-3)]GlcNAc(b1-4)]Man(a1-3)[Fuc(a1-2)Gal(b1-4)[Fuc(a1-3)]GlcNAc(b1-2)Man(a1-6)]Man(b1-4)GlcNAc(b1-4)GlcNAc
How it was run: as §1

[14] = target: Fuc(a1-2)Gal(b1-4)[Fuc(a1-3)]GlcNAc(b1-3)Gal(b1-4)[Fuc(a1-3)]GlcNAc
How it was run: as §1

[15] = target: Fuc(a1-2)Gal(b1-4)[Fuc(a1-3)]GlcNAc(b1-3)Gal(b1-4)[Fuc(a1-3)]GlcNAc(b1-3)Gal(b1-4)[Fuc(a1-3)]GlcNAc
How it was run: as §1

[16] = target: Fuc(a1-2)Gal(b1-4)[Fuc(a1-3)]GlcNAc(b1-3)GalNAc
How it was run: as §1

[17] = target: Fuc(a1-2)Gal(b1-4)[Fuc(a1-3)]GlcNAc(b1-3)[Neu5Ac(a2-6)Gal(b1-4)GlcNAc(b1-6)]Gal(b1-4)Glc
How it was run: as §1

[18] = target: Fuc(a1-2)Gal3S(b1-4)GlcNAc
How it was run: as §1

[19] = target: Fuc(a1-2)Gal6S(b1-3)GlcNAc
How it was run: as §1

[20] = target: Fuc(a1-2)Gal6S(b1-3)GlcNAc6S
How it was run: as §1

Fuc(a1-2)Gal6S(b1-4)Glc = target: Fuc(a1-2)Gal6S(b1-4)Glc
How it was run: as §1

[21] = target: Fuc(a1-2)Gal6S(b1-4)Glc6S
How it was run: as §1

[22] = target: Fuc(a1-2)Gal6S(b1-4)GlcNAc
How it was run: as §1

Fuc(a1-2)GlcNAc = target: Fuc(a1-2)GlcNAc
How it was run: as §1

Fuc(a1-2)[Gal(a1-3)]Gal = target: Fuc(a1-2)[Gal(a1-3)]Gal
How it was run: as §1

[23] = target: Fuc(a1-2)[Gal(a1-3)]Gal(b1-3)GalNAc
How it was run: as §1

[24] = target: Fuc(a1-2)[Gal(a1-3)]Gal(b1-3)GalNAc(b1-3)Gal(a1-4)Gal(b1-4)Glc
How it was run: as §1

[25] = target: Fuc(a1-2)[Gal(a1-3)]Gal(b1-3)GlcNAc
How it was run: as §1

[26] = target: Fuc(a1-2)[Gal(a1-3)]Gal(b1-3)GlcNAc(b1-2)Man(a1-3)[Fuc(a1-2)[Gal(a1-3)]Gal(b1-3)GlcNAc(b1-2)Man(a1-6)]Man(b1-4)GlcNAc(b1-4)GlcNAc
How it was run: as §1

[27] = target: Fuc(a1-2)[Gal(a1-3)]Gal(b1-3)GlcNAc(b1-2)Man(a1-3)[Fuc(a1-2)[Gal(a1-3)]Gal(b1-3)GlcNAc(b1-2)Man(a1-6)]Man(b1-4)GlcNAc(b1-4)[Fuc(a1-6)]GlcNAc
How it was run: as §1

B1: XL-35 (Xenopus laevis) (protein)
chain: MLVHILLLLVTGGLSQSCDPVVIVASKNMVKQLDCDKFRNCKEIKDSNEEAQDGIYTLTSPDGISYQTFCDMTTNGGGWTLVASVHENNMAGKCTIGDRWSSQQGNRADYPEGDGNWANYNTFGSAGGATSDDYKNPGYYDIEAYNLGVWHVPNKTPLSVWRNSSLQRYRTTDGILFKHGGNLFSLYRIYPVKYGIGSCSKDSGPTVPVVYDLGSANLTASFYSPGFRSQFTPGYIQFRPINTEKAALALCPGMKMESCNVEHVCIGGGGYFPEADPRQCGDFAAYDFNGYGTKKFNSAGIEITEAAVLLFYL
[1]
  glycan array binding signal (z-score): -0.123
[2]
  glycan array binding signal (z-score): -0.148
[3]
  glycan array binding signal (z-score): -0.134
[4]
  glycan array binding signal (z-score): -0.325
[5]
  glycan array binding signal (z-score): -0.14
[6]
  glycan array binding signal (z-score): -0.454
[7]
  glycan array binding signal (z-score): -0.097
[8]
  glycan array binding signal (z-score): -0.138
[9]
  glycan array binding signal (z-score): -0.067
[10]
  glycan array binding signal (z-score): 0.007
[11]
  glycan array binding signal (z-score): -0.188
[12]
  glycan array binding signal (z-score): 0.004
[13]
  glycan array binding signal (z-score): -0.067
[14]
  glycan array binding signal (z-score): 0.292
[15]
  glycan array binding signal (z-score): 0.014
[16]
  glycan array binding signal (z-score): 0.343
[17]
  glycan array binding signal (z-score): -0.231
[18]
  glycan array binding signal (z-score): 0.049
[19]
  glycan array binding signal (z-score): -0.082
[20]
  glycan array binding signal (z-score): 0.672
Fuc(a1-2)Gal6S(b1-4)Glc
  glycan array binding signal (z-score): -0.029
[21]
  glycan array binding signal (z-score): -0.272
[22]
  glycan array binding signal (z-score): -0.092
Fuc(a1-2)GlcNAc
  glycan array binding signal (z-score): -0.021
Fuc(a1-2)[Gal(a1-3)]Gal
  glycan array binding signal (z-score): 0.198
[23]
  glycan array binding signal (z-score): 0.075
[24]
  glycan array binding signal (z-score): -0.322
[25]
  glycan array binding signal (z-score): -0.091
[26]
  glycan array binding signal (z-score): -0.278
[27]
  glycan array binding signal (z-score): 0.06
